Among all 48,000 compounds or so, about 550 (1.1%) were called active. Not shown: some 4% with an inconclusive outcome. Cut-off read from the data, not from the text of the source: active = potency below about 15 µM; inconclusive = mostly about 16 µM to 33 µM; inactive = weaker than that. The list shows a part of the results.
molecular target: Lysosomal acid glucosylceramidase (Homo sapiens) (UniProt P04062); assay: Glucocerebrosidase; settings: purified enzyme, resorufin glucoside fluorescence (screen aimed at inhibitors), 20 min;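 note: the screen sought inhibitors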
Procedure, shortened: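 Normal human glucocerebrosidase (0.2 nM final) was assayed with resorufin β-D-glucopyranoside (30 uM final) in 50mM citric acid/KH2PO4, 10mM sodium taurocholate, 0.01% tween-20, pH 5.9. Compounds were titrated; fluorescence (Ex 548, Em 600) read after 20 min at RT.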
Potency is the fitted concentration of half-maximal effect.

Chain of UniProt P04062 (P04062 whole entry, looked up): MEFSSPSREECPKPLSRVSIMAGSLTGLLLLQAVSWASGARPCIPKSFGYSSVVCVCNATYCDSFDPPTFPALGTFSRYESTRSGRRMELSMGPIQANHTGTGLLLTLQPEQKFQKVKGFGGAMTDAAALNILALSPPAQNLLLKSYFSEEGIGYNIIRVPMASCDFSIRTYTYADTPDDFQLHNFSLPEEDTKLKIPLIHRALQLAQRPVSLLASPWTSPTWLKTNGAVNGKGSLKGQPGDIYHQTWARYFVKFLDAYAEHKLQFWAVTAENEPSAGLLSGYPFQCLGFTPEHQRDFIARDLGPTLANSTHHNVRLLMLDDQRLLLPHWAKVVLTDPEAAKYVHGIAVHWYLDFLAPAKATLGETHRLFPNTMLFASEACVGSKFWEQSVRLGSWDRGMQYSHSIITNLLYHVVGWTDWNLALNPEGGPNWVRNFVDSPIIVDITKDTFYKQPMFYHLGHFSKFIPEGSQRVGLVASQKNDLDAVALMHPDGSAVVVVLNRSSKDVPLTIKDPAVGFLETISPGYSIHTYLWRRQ

| SMILES | Potency |
| --- | --- |
| O=C(c1c[nH]c(=O)n(-c2ccccc2)c1=O)N1CCc2ccccc21 | inactive: > 76.9 µM |
| Clc1ccc(Cc2noc(CN3CCN(c4ccccc4)CC3)n2)c(Cl)c1 | inactive: > 76.9 µM |
| COC(=O)Cn1ccc(N(C)C)c(C#N)c1=O | inactive: > 76.9 µM |
| COC(=O)CSc1nc(C2CC2)nc2ccccc12 | inactive: > 76.9 µM |
| COc1cc(NS(=O)(=O)c2ccc(C)cc2C)cc(OC)c1OC | inactive: > 76.9 µM |
| COc1ccc2cc(C(c3nnnn3Cc3ccc(F)cc3)N3CCCCCC3)c(=O)[nH]c2c1 (stereo not drawn) | inactive |
| CCOC(=O)CSc1nc2cccnc2n1-c1ccc(F)cc1 | inactive: > 76.9 µM |
| COc1ccccc1CN(Cc1cc2cc(C)cc(C)c2[nH]c1=O)Cc1nnnn1CC1CCCO1 (stereo not drawn) | inactive: > 76.9 µM |
| COc1ccc2nc(NC(=O)CN3CCN(C)CC3)sc2c1 | inactive: > 76.9 µM |
| Cc1cc(C)c(C)c(OCC(=O)NCc2nc(-c3ccccc3)no2)c1 | inactive: > 76.9 µM |
| O=C(Nc1ccc(N2CCOCC2)cc1)c1ccc2nc(-c3ccco3)c(-c3ccco3)nc2c1 | inactive: > 76.9 µM |
| COc1ccccc1-n1cnc(N)c1C(C)=O | inactive: > 76.9 µM |
| CC(=O)c1cnc(Nc2nc(C)c3cccc(C)c3n2)nc1C | inactive: > 76.9 µM |
| CCCc1[nH]nc2c1C(CCC)C(C#N)=C(N)O2 (stereo not drawn) | inactive: > 76.9 µM |
| Cc1ccc2c(c1)N(CCCC(=O)NCC1COc3ccccc3O1)C(=O)CO2 (stereo not drawn) | inactive: > 76.9 µM |
| COc1cc(C(=O)N(C)c2nnc(-c3cccnc3)s2)cc(OC)c1OC | inactive: > 76.9 µM |
| O=C(c1ccncc1)N1CCN(C(=O)c2cccs2)CC1 | inactive: > 76.9 µM |
| O=C(CN(C(=O)CCC(=O)Nc1nccs1)c1ccc(F)cc1)NCC1CCCO1 (stereo not drawn) | inactive: > 76.9 µM |
| CCOC(=O)N1CCN(C(=O)c2ccc(C#CC3(O)CCCCC3)cc2)CC1 | inactive: > 76.9 µM |
| O=C(NCc1ccccn1)C1CCN(S(=O)(=O)c2cnc[nH]2)CC1 | inactive: > 76.9 µM |

| SMILES | Potency |
| --- | --- |
| COc1cccc(-n2nnnc2SCC(=O)NCc2ccco2)c1 | inactive: > 76.9 µM |
| COc1ccc2c3c(c(=O)oc2c1OCC(=O)C(C)(C)C)CCCC3 | inactive: > 76.9 µM |
| Nc1nnc(SCc2cc3c(cc2Cl)OCO3)s1 | inactive: > 76.9 µM |
| O=C(CSc1nnc2ccccn12)NC(=O)NC1CCCC1 | inactive: > 76.9 µM |
| COc1ccccc1C(=O)Nc1ccc(S(=O)(=O)N2CCOCC2)cc1 | inactive: > 76.9 µM |
| CCCNC(=O)Cn1cnc2sc(C(=O)N3CCCC(C(=O)OCC)C3)c(C)c2c1=O (stereo not drawn) | inactive: > 76.9 µM |
| Cc1ccc(NS(=O)(=O)c2ccc(C(=O)N3CCCN(C)CC3)cc2)cc1 | inactive: > 76.9 µM |
| CCOC(=O)c1[nH]c2ccc(OC)cc2c1NC(=O)CN1CCC2(CC1)OCCO2 | inactive: > 76.9 µM |
| CCOC(=O)c1ncn2c1C(=O)OC2(C)C | inactive: > 76.9 µM |
| COc1ccc(Cl)cc1NC(=O)C1CCCN(S(=O)(=O)c2cccc3nonc23)C1 (stereo not drawn) | inactive: > 76.9 µM |
| O=C1c2ccccc2-c2ccc(C(=O)N3CCOCC3)cc21 | inactive: > 76.9 µM |
| O=C(Cn1nnc(-c2ccc(Cl)cc2)n1)NCC1CCCCC1 | inactive: > 76.9 µM |
| COc1ccc(F)cc1CN1CCN(C(=O)CCC(=O)Nc2nnc(C(C)C)s2)CC1 | inactive: > 76.9 µM |
| Cc1ccc(N2C(=O)C(Cl)=C(Nc3c(C)n(C)n(-c4ccccc4)c3=O)C2=O)cc1 | inactive: > 76.9 µM |
| COc1ccc(C2C=C(c3ccc(Br)s3)Nc3ncnn32)cc1OC (stereo not drawn) | inactive: > 76.9 µM |
| Nc1nncn1C(=O)c1cccs1 | inactive: > 76.9 µM |
| Clc1cccc(N2CCN(CCNc3nc4ccccc4n4cnnc34)CC2)c1 | inactive: > 76.9 µM |
| O=c1c2c(-c3ccccc3)csc2nc2n1CCC2 | inactive: > 76.9 µM |
| Cc1c(C(=O)Nc2cccc(C(F)(F)F)c2)oc2ccc(S(=O)(=O)N3CCOCC3)cc12 | inactive |
| CCn1nnnc1SCC(=O)Nc1ccc(OCc2ccccc2)cc1 | inactive: > 76.9 µM |

| SMILES | Potency |
| --- | --- |
| COC(=O)C(CC(=O)Nc1cc(C)ccc1C)Nc1ccccc1OC (stereo not drawn) | inactive: > 76.9 µM |
| O=C(CCC1N=C2c3ccccc3N=C(SCc3ccccc3Cl)N2C1=O)NCc1ccco1 (stereo not drawn) | inactive: > 76.9 µM |
| CCOC(=O)C1CCN(C(=O)Nc2ccc(Cl)cc2Cl)CC1 | inactive: > 76.9 µM |
| CCOCc1nnc(NC(=O)COC)s1 | inactive: > 76.9 µM |
| CCN(CC)c1ccc(NC(=O)CN2CCN(c3ccc(F)cc3)CC2)cc1 | inactive: > 76.9 µM |
| CCOC(=O)Nc1cccc(Cl)c1C | inactive: > 76.9 µM |
| Cc1[nH]n2c(=O)c3c(nc2c1-c1ccc(Cl)cc1)CCC3 | active: 11.7 µM |
| O=C1NC2(CCCc3ccccc32)C(=O)N1Cc1nnc(-c2ccccc2Br)o1 (stereo not drawn) | inactive: > 76.9 µM |
| Cc1c(C(=O)N2CCOCC2)sc(NC(=O)c2ccc3c(c2)OCO3)c1C#N | inactive: > 76.9 µM |
| N#CCSCC(=O)Nc1ccc(F)cc1 | inactive: > 76.9 µM |
| CCOc1ccc2nc(NC(=O)CSc3nnc(-c4ccncc4)n3CC3CCCO3)sc2c1 (stereo not drawn) | inactive: > 76.9 µM |
| Cc1noc(C)c1CSc1nc2ccccc2nc1NS(=O)(=O)c1ccc(Cl)cc1 | inactive: > 76.9 µM |
| O=c1c2ccccc2nnn1CSc1nc2ccccc2c(=O)n1Cc1ccco1 | inactive: > 76.9 µM |
| Cc1cc(C(=O)NCCC2=CCCCC2)c(C)o1 | inactive: > 76.9 µM |
| Cc1ccc(C)c(N2CCN(C(=O)c3cc(S(=O)(=O)N4CCOCC4)ccc3F)CC2)c1 | inactive: > 76.9 µM |
| CC1CCCC(C)N1C(=O)c1cc(-c2cccs2)on1 (stereo not drawn) | inactive: > 76.9 µM |
| Cc1cccc(NC(=O)CNc2cc(C)ccc2C)c1 | inactive: > 76.9 µM |
| CC12COC3(C(=O)Nc4cccnc4)CC1CCC32C (stereo not drawn) | inactive: > 76.9 µM |
